This test addresses WT, nonmyristoylated mouse PKA catalytic subunit alpha (mouse, UniProt P05132). Briefly: HDX-MS; complex disulfide-trapped (SMO L637C to PKA-C C199) and gel-filtered, against the free proteins; 20 mM HEPES pH 8.0, 150 mM NaCl, 0.025% GDN, 1 mM ATP, 10 mM MgCl2, 25 °C; 1, 5, 10 min; SAG21k for pSMO, KAAD cyclopamine for nonphosphorylated SMO. The note with it: both partners purified.

B1: Nonphosphorylated FLAG-tagged mouse Smoothened ([…]) L637C (receptor)
chain: not shown
notes: Smoothened (SMO), mouse, […], P+2 leucine changed to cysteine; HDX-MS runs with nonphosphorylated SMO were done with the inverse agonist KAAD cyclopamine (1 uM); also called nonphosphorylated SMO-L637C; SMO (in SMO-PKA-C versus pSMO-PKA-C); not shown: FLAG, N-terminal, kept
As for B1, the binding result was “binds”.

B2: GRK2-phosphorylated FLAG-tagged mouse Smoothened ([…]) L637C (receptor)
chain: not shown
modifications: GRK2/3 phosphorylation sites pS560, pS594, pT597, pS599, pS615, pS642, pT644, pT648
notes: Smoothened (SMO), mouse, […], P+2 leucine changed to cysteine; the HDX-MS and cryo-EM samples were; also called pSMO-L637C; SMO L637C; not shown: FLAG, N-terminal, kept
In the case of B2, the binding result is “binds”.
